# PubChem BioAssay AID504466 (National Center for Advancing Translational Sciences (NCATS), 2011)
# Among all 330,000 compounds or so, about 4,200 (1.3%) were called active. This list was built around the results that the source calls inconclusive (neither active nor inactive); the mix of calls is not that of the screen. Calls follow the shape of the dose curve; as a rule, active = well fitted activation curve with a large enough effect; inconclusive = small, poorly fitted or top-dose-only effect; inactive = no such curve, though single readings can be large or run the other way. A potency beside an inconclusive call is a rough fit, not a confirmed value.
# Experiment: qHTS screen for small molecules that induce genotoxicity in human embryonic kidney (HEK293T) cells expressing luciferase-tagged ELG1; also: nearly all actives have a fitted effect of over 60% in size
# Details: HEK293T ELG1-luciferase reporter, luminescence, 16 h; series mostly up to 46 µM
# In short: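 Step 1: seed 2,000 HEK293T ELG1-luciferase cells per well. Step 2: add compound or DMSO, incubate 16 hr at 37 °C. Step 3: ONE-Glo, 30 min at room temperature, read luminescence.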
# Potency is read from the fitted curve at half-maximal effect; tags tell the direction and shape of the fitted curve.
row,Compound,Potency
1,O=C1NC(=O)C(=Cc2cc3c(cc2[N+](=O)[O-])OCO3)C(=O)N1,inactive
2,COC(=O)c1cn(CCOc2ccccc2)c2ccccc12,active: 20.6 µM
3,CCN1CCN(C(=O)COc2cc(=O)n(CC)c3ccccc23)CC1,"inconclusive: 10.3 µM [activator, partial curve, poor fit]"
4,O=C(C1CC(c2ccccc2O)=NO1)N1CCC2(CC1)OCCO2 (configuration not stated),active: 16.4 µM
5,O=C1NC(=O)N(Cc2ccccc2Cl)C(=O)/C1=C/c1cccs1,"inconclusive: 29.1 µM [activator, single point]"
6,CCCCCCNC(=O)N[C@@H](Cc1ccc(O)cc1)C(=O)NCCC[C@H]1CN2C(=NC[C@H]2C)N1CC1CCC1,"inconclusive: 20.6 µM [activator, partial curve, poor fit]"
7,CCCCCCCCn1sccc1=O,"inconclusive: 18.3 µM [activator, partial curve, poor fit]"
8,COc1ccc(NC2=NC(C)(C)CS2)cc1,"inconclusive: 18.3 µM [activator, partial curve, poor fit]"
9,CCSc1cc(C2C(C#N)=C(N)Oc3n[nH]c(C)c32)c(C)o1 (configuration not stated),"inconclusive: 29.1 µM [activator, single point]"
10,O=C(CSc1ccccc1)N1CCC2(CC1)OCCO2,active: 10.3 µM
11,O=C1NC(=O)N(c2cccc(Br)c2)C(=O)/C1=C/c1ccsc1,inactive
12,Cc1ccc(NC(=O)c2ccc(C)c(S(=O)(=O)N3CCCCC3)c2)nc1,"inconclusive: 25.9 µM [activator, single point]"
13,Cc1cc2c(C(C)C)c(O)c(O)c(C=O)c2c(O)c1-c1c(C)cc2c(C(C)C)c(O)c(O)c(C=O)c2c1O,"inconclusive: 29.1 µM [activator, single point]"
14,CCCN1CC[C@@H]2c3cc(O)ccc3CC[C@@H]21,"inconclusive: 4.61 µM [activator, single point]"
15,CN1CC=C(/C=C/c2ccc(-c3ccccc3)cc2)CC1,"inconclusive: 20.6 µM [activator, partial curve, poor fit]"
16,COc1ccc(C(=O)CCNc2ccc(F)cc2)cc1,"inconclusive: 16.4 µM [activator, partial curve, poor fit]"
17,C=CCn1c(O)c(C(CC)=Nc2cc(OC)ccc2OC)c(=O)[nH]c1=O,active: 23.1 µM
18,CCC(=O)Nc1ccc(-c2ccc(N3CCN(C)CC3)nn2)cc1,"inconclusive: 20.6 µM [activator, partial curve, poor fit]"
19,CC(=O)O[C@@H]1CC[C@]2(C)C3CC[C@]4(C)C(=O)[C@H](O)CC4C3[C@@H](OC(C)=O)C[C@H]2C1 (some centres not stated),inactive
20,Nc1ccccc1C(=O)OCCOc1ccccc1,active: 0.92 µM
21,Cc1cc(OC(C)C(=O)NCc2ccncc2)c2c3c(c(=O)oc2c1)CCC3 (configuration not stated),"inconclusive: 18.3 µM [activator, partial curve, poor fit]"
22,CC(=O)Nc1ccccc1C(=O)OCc1ccccc1F,"inconclusive: 16.4 µM [activator, partial curve, poor fit]"
23,CCC(=O)N1N=C(c2c(O)n(C)c(=O)n(C)c2=O)CC1c1ccccc1 (configuration not stated),"inconclusive: 32.6 µM [activator, partial curve, poor fit]"

row,Compound,Potency
1,CC(=O)Nc1cccc2c1Cc1ccccc1-2,"inconclusive: 18.3 µM [activator, single point]"
2,CCCCCCOc1ccc(CN2CCN(CC)CC2)cc1,active: 3.66 µM
3,Clc1ccc2sc(C3CCNCC3)nc2c1,"inconclusive: 11.6 µM [activator, partial curve, poor fit]"
4,COC(=O)c1ccc(C(=O)OC)c(NC(=O)Oc2ccccc2)c1,"inconclusive: 25.9 µM [activator, partial curve, poor fit]"
5,CCc1ccc2nc(N3CCC(C(=O)N4CCC5(CC4)OCCO5)CC3)sc2c1,"inconclusive: 29.1 µM [activator, single point]"
6,CNC(=O)Oc1cccc(-c2cn3cc(OC(=O)NC)ccc3n2)c1,active: 20.6 µM
7,C=C(CO)CC1CC(O)[C@]2(C)OC3CC4OC5C[C@]6(C)O[C@]7(C)CCC8OC9C[C@]%10(C)OC%11C(C)=CC(=O)OC%11CC%10OC9C[C@@H](C)C8OC7CC6O[C@]5(C)C/C=C\C4OC3CC2O1 (some centres not stated),inactive
8,COC12C(COC(N)=O)C3=C(C(=O)C(C)=C(N)C3=O)N1CC1C2N1C (configuration not stated),inactive
9,O=C1/C(=C/c2cccnc2)N2CCC1CC2,"inconclusive: 6.51 µM [activator, partial curve, poor fit]"
10,Cc1ccc(Cn2cc(C=O)c(-c3ccc(C)cc3)n2)cc1,"inconclusive: 23.1 µM [activator, partial curve, poor fit]"
11,CCn1nc(-c2cccs2)nc2c(=O)n(C)c(=O)nc1-2,inactive
12,CCC(=NCc1cc(OC)cc(OC)c1)c1c(O)[nH]c(=O)[nH]c1=O,"inconclusive: 29.1 µM [activator, partial curve, poor fit]"
13,CCN(CC)C(=O)Cn1cc(/C=C2\C(=O)NC(=O)N(c3ccccc3F)C2=O)c2ccccc21,"inconclusive: 25.9 µM [activator, single point]"
14,CN(C)C(=O)Oc1ccc(OC(=O)c2ccccc2)cc1,"inconclusive: 25.9 µM [activator, single point]"
15,CC(=O)c1ccc(-c2ccccc2)cc1,"inconclusive: 20.6 µM [activator, partial curve, poor fit]"
16,O=C(N/N=C/c1c(O)n(Cc2ccc(F)cc2)c(=O)[nH]c1=O)c1ccccc1,"inconclusive: 23.1 µM [activator, partial curve, poor fit]"
17,O=C1NC(=O)N(CC2CCCO2)C(=O)/C1=C/c1cccs1 (configuration not stated),inactive
18,O=C1NC(=O)N(c2ccccc2)C(=O)/C1=C/c1ccc2c(c1)Cc1ccccc1-2,inactive
19,O=C(NC(c1ccc(Cl)cc1)P(=O)(Oc1ccccc1)Oc1ccccc1)OCc1ccccc1 (configuration not stated),"inconclusive: 25.9 µM [activator, partial curve, poor fit]"
20,CCN1CCN(C(=O)Cc2ccc(C)cc2)CC1,"inconclusive: 29.1 µM [activator, single point]"
21,CCCCn1cnc2cc(NCc3cccc(OC)c3O)ccc21,"inconclusive: 16.4 µM [activator, partial curve, poor fit]"
22,CC(=O)C1=NOC(CNc2ncc(C(F)(F)F)cc2Cl)C1 (configuration not stated),"inconclusive: 14.6 µM [activator, partial curve, poor fit]"
23,COC(=O)c1c(C)n(Cc2ccc3c(c2)OCO3)c2ccc(O)cc12,"inconclusive: 23.1 µM [activator, partial curve, poor fit]"

row,Compound,Potency
1,CCCCCCOc1ccc(CN2CCN(C)CC2)cc1,active: 5.8 µM
2,O=C1NC(=O)N(Cc2ccccc2)C(=O)/C1=C\c1ccco1,"inconclusive: 32.6 µM [activator, partial curve, poor fit]"
3,COc1ccc(-n2nc(C(=O)NCC(=O)N3CCC4(CC3)OCCO4)c3ccccc3c2=O)cc1,"inconclusive: 16.4 µM [activator, partial curve, poor fit]"
4,C=CCn1c(O)c(C(C)=Nc2ccc(N(CC)CC)cc2)c(=O)[nH]c1=O,inactive
5,Cc1nc2ccc(NC(=O)C3COc4ccccc4O3)cc2s1 (configuration not stated),"inconclusive: 18.3 µM [activator, partial curve]"
6,COc1ccccc1N=Nc1ccc(N)c(C)c1,"inconclusive: 10.3 µM [activator, partial curve]"
7,Cc1cccc(N=Nc2ccc(N(C)C)cc2)c1,active: 4.61 µM
8,CCCn1c(C)c(C(=O)c2cccc3ccccc23)c2ccccc21,"inconclusive: 11.6 µM [activator, partial curve, poor fit]"
9,CCCN1CCCC(C(=O)c2cc(C)c(OC)c(C)c2)C1 (configuration not stated),"inconclusive: 5.17 µM [activator, full curve, poor fit]"
10,Cc1cc(C)c2c(c1)-c1cc(C)nn1C(c1cccnc1)N2 (configuration not stated),"inconclusive: 14.6 µM [activator, partial curve, poor fit]"
11,CCC1C=CC=CC[C@H](C)[C@@H](O)[C@](C)(O)C(=O)[C@@H](C)[C@H](O)[C@@H](C)C(=O)[C@H](C)[C@@H](O)[C@H](C)C=CC(=O)OC2[C@@H](C)C(CC1)OC1(CC[C@@H](C)C(C[C@H](C)O)O1)[C@@H]2C (some centres not stated),inactive
12,Cc1ccc(N)c(C)c1,inactive
13,CCN1C(=O)/C(=C/c2ccc3c(c2)CCN3CCCCl)C(=O)NC1=S,"inconclusive: 25.9 µM [activator, partial curve, poor fit]"
14,O=C(c1cc(-c2cccc(Cl)c2)on1)N1CCOCC1,active: 23.1 µM
15,CCOC(=O)C(O)(c1ccc(NC(=O)NC2CCCCC2)cc1)C(F)(F)F (configuration not stated),"inconclusive: 14.6 µM [activator, partial curve]"
16,CCCCN=C[C@]12CCC(O)CC1(O)CCC1[C@@H]2CC[C@]2(C)[C@H](C3C=CC(=O)O3)CCC12O (some centres not stated),inactive
17,O=C(CN1CCCCC1)c1ccccc1Cl,inactive
18,Cc1cc(C(=O)Nc2ccccc2)nn1C(C)(C)C,"inconclusive: 6.51 µM [activator, partial curve, poor fit]"
19,COc1ccc(CCn2c(O)c(/C=N/N3CCOCC3)c(=O)[nH]c2=O)cc1OC,inactive
20,On1ccccc1=S,inactive
21,CC1(C)CSC(=NCc2ccccc2)N1,"inconclusive: 16.4 µM [activator, single point]"
